Test results published in the supplement of paper PMC9446081.
The whole screen tested about 39,000 compounds, of which about 220 (0.56%) showed activity. This is one part of the list.

System: Escherichia coli K-12 BW25113
Test: relative growth (OD600 normalised to plate interquartile mean) (fraction); higher = less growth inhibition, active = 0.2 or less
Conditions: 50 µM; LB; incubation time: overnight (16-24 h)
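Further: static incubation at 37 °C against the wild-type strain, values averaged over two biological replicates.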

Row | SMILES | relative growth
1 | C[C@H](CO)N1C[C@H](C)[C@H](CN(C)S(C)(=O)=O)Oc2c(NS(C)(=O)=O)cccc2C1=O | inactive: 0.968
2 | C[C@H]1CCCCO[C@H](CN(C)Cc2ccccc2)[C@@H](C)CN([C@@H](C)CO)C(=O)c2cc(NS(=O)(=O)c3ccc(Cl)cc3)ccc2O1 | inactive: 0.993
3 | Cc1noc(C)c1NC(=O)N(C)C[C@H]1Oc2ccc(NC(=O)NC(C)C)cc2CC(=O)N([C@H](C)CO)C[C@@H]1C | inactive: 1
4 | C[C@H](CO)N1C[C@H](C)[C@H](CN(C)CC2CC2)Oc2ccc(NS(=O)(=O)c3cn(C)cn3)cc2CC1=O | inactive: 0.99
5 | COc1ccc(C#Cc2ccc3c(c2)O[C@@H](CN(C)C(=O)CN2CCOCC2)[C@H](C)CN([C@@H](C)CO)S3(=O)=O)cc1 | inactive: 1.01
6 | COc1nn(C)cc1C(=O)Nc1ccon1 | inactive: 0.987
7 | C[C@@H]1CN([C@@H](C)CO)C(=O)Cc2cc(NS(=O)(=O)c3cn(C)cn3)ccc2O[C@H]1CN(C)Cc1ccc(C(=O)O)cc1 | inactive: 0.997
8 | C[C@@H]1CN([C@@H](C)CO)C(=O)c2cc(NC(=O)Cn3cnnn3)ccc2O[C@@H]1CN(C)C(=O)Nc1ccc(F)cc1 | inactive: 1.02
9 | C[C@@H]1CCCCO[C@@H](CN(C)Cc2ccncc2)[C@@H](C)CN([C@H](C)CO)C(=O)c2cc(NC(=O)Nc3ccc4c(c3)OCO4)ccc2O1 | inactive: 1
10 | COc1ccc(CN(C)C[C@H]2OCCCC[C@H](C)Oc3ccc(NS(=O)(=O)c4ccc(F)cc4)cc3C(=O)N([C@H](C)CO)C[C@H]2C)cc1 | inactive: 0.978
11 | NNC(=O)c1cccc([N+](=O)[O-])c1 | inactive: 0.991
12 | C[C@H]1CCCCO[C@@H](CN(C)Cc2ccccc2)[C@@H](C)CN([C@@H](C)CO)C(=O)c2cc(NS(=O)(=O)c3ccc(F)cc3)ccc2O1 | inactive: 0.997
13 | C[C@H]1CN([C@@H](C)CO)C(=O)c2cccc(NC(=O)c3nc4ccccc4s3)c2O[C@H]1CN(C)Cc1ccc(Oc2ccccc2)cc1 | inactive: 1.01
14 | CO[C@@H]1CN(C)C(=O)c2cc(NC(=O)Nc3ccc(Cl)cc3)ccc2OC[C@H](C)N(C(=O)Nc2c(C)noc2C)C[C@H]1C | inactive: 0.968
15 | C[C@@H]1CN([C@@H](C)CO)C(=O)c2cc(NS(=O)(=O)c3ccccc3)ccc2O[C@H]1CN(C)CC1CC1 | inactive: 1
16 | COc1ccc(NC(=O)N(C)C[C@@H]2OCCCC[C@H](C)Oc3ccc(NC(=O)Nc4ccc(F)cc4)cc3C(=O)N([C@H](C)CO)C[C@@H]2C)cc1 | inactive: 1.02
17 | Cc1ccc(S(=O)(=O)N(C)C[C@@H]2OCCCC[C@@H](C)Oc3ccc(NC(=O)Nc4c(C)noc4C)cc3C(=O)N([C@@H](C)CO)C[C@@H]2C)cc1 | inactive: 0.989
18 | O=C1OC(CO)C(O)C(O)C1O (centres undefined) | inactive: 1.07
19 | Cc1ccc(S(=O)(=O)Nc2ccc3c(c2)C(=O)N([C@@H](C)CO)C[C@@H](C)[C@H](CN(C)C(=O)Nc2ccc(F)cc2)OCCCC[C@@H](C)O3)cc1 | inactive: 1.01
20 | COc1ccc(C=Cc2cc(O)cc(O[C@@H]3O[C@H](CO)[C@@H](O)[C@H](O)[C@H]3O)c2)cc1 | inactive: 0.972

Row | SMILES | relative growth
21 | COc1ccc(CN(C)C[C@@H]2OCCCC[C@@H](C)Oc3ccc(NC(=O)Nc4ccc(C(F)(F)F)cc4)cc3C(=O)N([C@H](C)CO)C[C@H]2C)cc1 | inactive: 1
22 | CC(=O)Nc1ccc(C(=O)NN)cc1 | inactive: 0.985
23 | COc1cccc(S(=O)(=O)N(C)C[C@@H]2Oc3ncc(C#CC(C)(C)O)cc3C(=O)N([C@H](C)CO)C[C@@H]2C)c1 | inactive: 0.992
24 | O=C(CN1CCOCC1)NCC[C@@H]1CC[C@@H](NC(=O)Nc2ccccc2)[C@H](CO)O1 | inactive: 1.01
25 | Cc1noc(C)c1S(=O)(=O)Nc1ccc2c(c1)CC(=O)N([C@H](C)CO)C[C@H](C)[C@@H](CN(C)S(=O)(=O)c1ccccc1)O2 | inactive: 0.998
26 | CN(C)C[C@@]12COC[C@H]1CN(C(=O)N(C)C)C2 | inactive: 0.99
27 | COc1ccc(CN(C)C[C@H]2Oc3ccc(NC(=O)CCCCCC(=O)Nc4ccccc4N)cc3C(=O)N([C@H](C)CO)C[C@H]2C)cc1 | inactive: 1
28 | C[C@@H]1CN([C@H](C)CO)C(=O)c2cc(NC(=O)CCN3CCOCC3)ccc2O[C@H]1CN(C)S(=O)(=O)c1ccccc1 | inactive: 1.01
29 | CCC(=O)OC1C(OC2C(C)C(OC3CC(C)(OC)C(O)C(C)O3)C(C)C(=O)OC(CC)C(C)(O)C(O)C(C)C(=O)C(C)CC2(C)O)OC(C)CC1N(C)C.CCCCCCCCCCCCOS(=O)(=O)O (centres undefined) | inactive: 0.953
30 | NC(=O)C1CCNCC1 | inactive: 1.01
31 | CC(=O)NS(=O)(=O)c1ccccc1 | inactive: 0.98
32 | C[C@@H]1CCCCO[C@@H](CN(C)C(=O)c2ccccc2)[C@H](C)CN([C@@H](C)CO)C(=O)c2cc(NC(=O)Nc3ccc(C(F)(F)F)cc3)ccc2O1 | inactive: 1.06
33 | COc1ccc(NC(=O)Nc2ccc3c(c2)C(=O)N([C@H](C)CO)C[C@H](C)[C@@H](CN(C)C(=O)Nc2cccc4ccccc24)OCCCC[C@@H](C)O3)cc1 | inactive: 1.02
34 | C[C@@H]1CCCCO[C@@H](CN(C)C(=O)Nc2ccc(C(F)(F)F)cc2)[C@H](C)CN([C@@H](C)CO)C(=O)c2cc(NS(=O)(=O)c3ccccc3)ccc2O1 | inactive: 1.02
35 | CN1CCN(C(=O)C[C@@H]2CC[C@@H]3[C@H](COC[C@H](O)CN3CC3CCCC3)O2)CC1 | inactive: 0.975
36 | C[C@H]1CN([C@@H](C)CO)C(=O)c2cccc(NC(=O)Nc3ccccc3)c2O[C@@H]1CN(C)S(C)(=O)=O | inactive: 0.991
37 | C[C@H](CO)N1C[C@H](C)[C@@H](CN(C)Cc2ccc3c(c2)OCO3)OCCCC[C@H](C)Oc2ccc(NC(=O)Cc3ccccc3)cc2C1=O | inactive: 0.979
38 | Cc1ccc(S(=O)(=O)Nc2ccc3c(c2)C(=O)N([C@H](C)CO)C[C@@H](C)[C@H](CN(C)CC2CC2)O3)cc1 | inactive: 1.03
39 | O=C(C[C@H]1CC[C@@H]2[C@H](COC[C@H](O)CN2S(=O)(=O)c2ccccc2)O1)N1CCOCC1 | inactive: 0.999
40 | C[C@H]1CCCCO[C@H](CN(C)S(=O)(=O)c2ccc(F)cc2)[C@@H](C)CN([C@@H](C)CO)C(=O)c2cc(NC(=O)Cc3ccccc3)ccc2O1 | inactive: 1.01

Row | SMILES | relative growth
41 | Cc1ccc(S(=O)(=O)N(C)C[C@H]2Oc3c(NC(=O)c4ccncc4)cccc3C(=O)N([C@H](C)CO)C[C@H]2C)cc1 | inactive: 0.832
42 | C[C@H]1CCCCO[C@@H](CN(C)C(=O)Nc2ccccc2)[C@@H](C)CN([C@@H](C)CO)C(=O)c2cc(NC(=O)NC3CCCCC3)ccc2O1 | inactive: 0.995
43 | C[C@@H]1CN([C@H](C)CO)C(=O)c2cc(NC(=O)Nc3ccc(C(F)(F)F)cc3)ccc2O[C@H]1CN(C)S(=O)(=O)c1ccc(Cl)cc1 | inactive: 0.997
44 | Cc1ccc(-c2ccc3c(c2)O[C@@H](CN(C)C(=O)Nc2ccc(C(F)(F)F)cc2)[C@@H](C)CN([C@H](C)CO)S3(=O)=O)cc1 | inactive: 1.03
45 | C[C@@H]1CCCCO[C@@H](CN(C)C(=O)Nc2ccccc2)[C@@H](C)CN([C@@H](C)CO)C(=O)c2cc(NS(=O)(=O)c3ccccc3)ccc2O1 | inactive: 0.929
46 | C[C@H](CO)N1C[C@H](C)[C@@H](CN(C)S(=O)(=O)c2ccccc2)OCCCC[C@H](C)Oc2ccc(NC(=O)Nc3ccc(F)cc3)cc2C1=O | inactive: 1.04
47 | C[C@H]1CCCCO[C@H](CN(C)C(=O)Nc2cccc3ccccc23)[C@@H](C)CN([C@@H](C)CO)C(=O)c2cc(NC(=O)Nc3ccc4c(c3)OCO4)ccc2O1 | inactive: 1.01
48 | C[C@@H]1CCCCO[C@@H](CN(C)C)[C@H](C)CN([C@@H](C)CO)C(=O)c2cc(NC(=O)CCCN(C)C)ccc2O1 | inactive: 1.02
49 | COc1cccc(S(=O)(=O)Nc2ccc3c(c2)[C@@H]2C[C@H](CC(=O)NCCc4ccccc4)O[C@H](CO)[C@@H]2O3)c1 | inactive: 0.963
50 | CCS(=O)(=O)N1CC[C@]2(CC1)CN([C@@H](CO)c1c2c2ccc(cc2n1C)OC)C(=O)CN1CCOCC1 | inactive: 0.979
51 | COc1cccc(c1)CN1C[C@]2(CCN(CC2)S(=O)(=O)C)c2c(n(c3cc(ccc23)OC)C)[C@H]1CO | inactive: 1.02
52 | Cl.NCCc1ccc(O)c(O)c1 | inactive: 1.02
53 | C[C@H](CO)N1C[C@H](C)[C@H](CN(C)C(=O)c2ccncc2)Oc2cc(C#C[C@@H](C)O)ccc2S1(=O)=O | inactive: 0.999
54 | C[C@@H]1CN([C@@H](C)CO)C(=O)c2cc(NC(=O)CCC(F)(F)F)ccc2O[C@@H](C)CCCCO[C@H]1CN(C)S(=O)(=O)c1cccs1 | inactive: 0.999
55 | C[C@@H]1CN([C@@H](C)CO)C(=O)c2cc(Br)cnc2O[C@H]1CN(C)C(=O)Nc1ccc(F)cc1 | inactive: 1.01
56 | COc1ccc(cc1)CN1C[C@]2(CN(C2)C(=O)C2CCOCC2)c2c(n(c3cc(ccc23)OC)C)[C@@H]1CO | inactive: 0.999
57 | CC(C)NC(=O)[C@@]1(c2ccc([N+](=O)[O-])cc2)CC(=O)N(CC23CC4CC(CC(C4)C2)C3)[C@@H]1c1ccc(CO)cc1I | inactive: 1.03
58 | COc1ccc2c3c([nH]c2c1)[C@@H](CO)N(CC1CCCC1)C[C@]13CCN(CC1)C(=O)c1ccc(cc1)F | inactive: 0.976
59 | CC1=C(/C=C/C(C)=C/C=C/C(C)=C/C=C/C=C(C)/C=C/C=C(C)/C=C/C2=C(C)CCCC2(C)C)C(C)(C)CCC1 | inactive: 0.988
